Measurements: the supplement of paper PMC3334620
Over roughly 33,000 sequences, “E-score (-0.5 to 0.5)” has its median near -0.012; the highest 2% begin near 0.29. The list shows a part of the results.

target: T1, Ybr033w (UniProt P38073); assay: PBM E-score (8-mer binding enrichment) (E-score (-0.5 to 0.5)); higher = stronger / more preferred TF binding; most listed sequences are background and not binding sites; conditions: protein concentration: 200 nM; construct: GST-full length
T1 sequence: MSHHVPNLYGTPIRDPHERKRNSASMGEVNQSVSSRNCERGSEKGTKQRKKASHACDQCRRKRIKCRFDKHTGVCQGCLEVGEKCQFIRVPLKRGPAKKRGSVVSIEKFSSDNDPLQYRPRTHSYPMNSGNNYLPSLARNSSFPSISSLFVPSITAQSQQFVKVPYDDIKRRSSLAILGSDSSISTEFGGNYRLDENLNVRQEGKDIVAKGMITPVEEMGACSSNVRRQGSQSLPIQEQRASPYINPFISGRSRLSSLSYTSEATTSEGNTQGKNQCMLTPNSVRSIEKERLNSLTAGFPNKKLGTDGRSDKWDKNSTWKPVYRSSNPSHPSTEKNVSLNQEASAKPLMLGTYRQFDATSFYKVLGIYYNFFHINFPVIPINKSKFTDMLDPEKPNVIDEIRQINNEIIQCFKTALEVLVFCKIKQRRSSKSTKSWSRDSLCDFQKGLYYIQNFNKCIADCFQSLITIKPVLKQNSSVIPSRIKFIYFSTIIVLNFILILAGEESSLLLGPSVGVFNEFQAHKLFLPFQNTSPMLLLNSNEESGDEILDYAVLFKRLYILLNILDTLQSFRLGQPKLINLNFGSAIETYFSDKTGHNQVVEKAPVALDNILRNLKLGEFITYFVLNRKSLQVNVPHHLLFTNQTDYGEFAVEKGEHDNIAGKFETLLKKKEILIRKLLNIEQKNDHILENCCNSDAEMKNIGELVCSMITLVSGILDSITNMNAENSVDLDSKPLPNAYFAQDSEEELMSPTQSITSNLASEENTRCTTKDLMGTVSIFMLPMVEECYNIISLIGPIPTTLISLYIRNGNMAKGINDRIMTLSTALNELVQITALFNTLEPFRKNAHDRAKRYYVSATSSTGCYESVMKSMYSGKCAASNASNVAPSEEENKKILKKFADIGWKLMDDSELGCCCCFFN
Procedure, shortened: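 Yeast transcription factors, full-length or as DNA-binding domains, were expressed with a GST tag using PURExpress in vitro transcription/translation. At about 100-200 nM they were applied to universal all-10-mer Agilent arrays, double-stranded by primer extension on fresh or once-stripped slides. Fluorescent anti-GST detected bound protein, and masliner normalised the scans. E-scores for ungapped eight-base words, pooled with reverse complements, came from the Universal PBM Analysis Suite.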

Question: With CATGATTC as the sequence, how does the “PBM E-score” value read?
Answer: Its value is -0.131.

Question: GTCAGAAA was tested. Which “PBM E-score” value did it give?
Answer: Its value is 0.0734.

Question: With ACACAACC as the sequence, how does the “PBM E-score” value read?
Answer: Its value is -0.169.

Question: With ATAATGGA as the sequence, how does the “PBM E-score” value read?
Answer: The value was 0.0954.

Question: With CGTGCAGC as the sequence, how does the “PBM E-score” value read?
Answer: The value was -0.125.

Question: With ACCCATTC as the sequence, how does the “PBM E-score” value read?
Answer: Its value is 0.00112.

Question: For ATTACTAA, which “PBM E-score” value is on record?
Answer: Its value is 0.225.

Question: For GGGGGCCA, which “PBM E-score” value is on record?
Answer: The value was -0.335.

Question: How did the “PBM E-score” value turn out when ACATGCTG was run?
Answer: Its value is -0.0338.

Question: ATACTATG was tested. Which “PBM E-score” value did it give?
Answer: The value was 0.111.

Question: How did the “PBM E-score” value turn out when CGAAGTGC was run?
Answer: The value was 0.00932.

Question: GTATTCCA was tested. Which “PBM E-score” value did it give?
Answer: Its value is -0.0248.

Question: With TTACTAAA as the sequence, how does the “PBM E-score” value read?
Answer: Its value is 0.279.

Question: With CCTAGGCG as the sequence, how does the “PBM E-score” value read?
Answer: The value was -0.207.

Question: For AATTCACA, which “PBM E-score” value is on record?
Answer: Its value is 0.23.

Question: With GACGGGGC as the sequence, how does the “PBM E-score” value read?
Answer: The value was -0.347.

Question: Which “PBM E-score” value does the source give for CAACGTTA here?
Answer: Its value is 0.173.

Question: Which “PBM E-score” value does the source give for CCCGTAGC here?
Answer: Its value is -0.135.

Question: With AATAAGCG as the sequence, how does the “PBM E-score” value read?
Answer: The value was -0.0835.

Question: CTACACAC was tested. Which “PBM E-score” value did it give?
Answer: The value was -0.0439.

Question: With GCAATGCC as the sequence, how does the “PBM E-score” value read?
Answer: The value was -0.0686.

Question: With CCACGTAA as the sequence, how does the “PBM E-score” value read?
Answer: Its value is -0.124.

Question: For GGACAAGA, which “PBM E-score” value is on record?
Answer: The value was -0.0717.

Question: ATATTCAA was tested. Which “PBM E-score” value did it give?
Answer: Its value is 0.3.

Question: With ACCGGATC as the sequence, how does the “PBM E-score” value read?
Answer: Its value is 0.0115.

Question: With GTCCCCCA as the sequence, how does the “PBM E-score” value read?
Answer: The value was -0.251.

Question: For CCTAAGAA, which “PBM E-score” value is on record?
Answer: Its value is 0.0716.

Question: How did the “PBM E-score” value turn out when CCACTCCG was run?
Answer: Its value is -0.112.

Question: AAGCTACG was tested. Which “PBM E-score” value did it give?
Answer: The value was -0.148.

Question: Which “PBM E-score” value does the source give for CTTAGTCA here?
Answer: Its value is -0.0627.

Question: How did the “PBM E-score” value turn out when AAGGTTGG was run?
Answer: Its value is -0.0428.

Question: For GATTGAGA, which “PBM E-score” value is on record?
Answer: Its value is 0.198.

Question: For GTATTGGA, which “PBM E-score” value is on record?
Answer: Its value is 0.037.

Question: With GCCGAAAC as the sequence, how does the “PBM E-score” value read?
Answer: Its value is 0.0384.

Question: Which “PBM E-score” value does the source give for AATTAGAT here?
Answer: The value was 0.284.

Question: With GCATCGCA as the sequence, how does the “PBM E-score” value read?
Answer: The value was -0.229.

Question: With AACGATAC as the sequence, how does the “PBM E-score” value read?
Answer: The value was 0.15.

Question: For GATAGTCC, which “PBM E-score” value is on record?
Answer: Its value is -0.0766.

Question: For GCCATGTA, which “PBM E-score” value is on record?
Answer: Its value is -0.0592.

Question: Which “PBM E-score” value does the source give for TAATAACA here?
Answer: Its value is 0.226.

Question: For ACGATCCA, which “PBM E-score” value is on record?
Answer: Its value is -0.048.

Question: For CAGTAATC, which “PBM E-score” value is on record?
Answer: The value was -0.0846.

Question: With AGACAAAG as the sequence, how does the “PBM E-score” value read?
Answer: Its value is 0.00167.

Question: With AACTTTAT as the sequence, how does the “PBM E-score” value read?
Answer: Its value is 0.184.

Question: How did the “PBM E-score” value turn out when CGAATGAG was run?
Answer: Its value is -0.0437.

Question: Which “PBM E-score” value does the source give for ATTTTACG here?
Answer: The value was 0.328.

Question: For GGCTAAAA, which “PBM E-score” value is on record?
Answer: The value was 0.033.

Question: CCTCTAAC was tested. Which “PBM E-score” value did it give?
Answer: The value was -0.0254.

Question: Which “PBM E-score” value does the source give for ACTGACAT here?
Answer: The value was -0.0918.

Question: How did the “PBM E-score” value turn out when ATAGATCC was run?
Answer: The value was 0.186.

Question: AGACGAGA was tested. Which “PBM E-score” value did it give?
Answer: Its value is 0.0985.

Question: With CTTGGGCA as the sequence, how does the “PBM E-score” value read?
Answer: Its value is 0.0253.

Question: How did the “PBM E-score” value turn out when GCTCCCCA was run?
Answer: Its value is -0.305.

Question: Which “PBM E-score” value does the source give for ATAGATTC here?
Answer: The value was 0.135.

Question: With ATACGTAT as the sequence, how does the “PBM E-score” value read?
Answer: Its value is 0.207.

Question: For AACGATTA, which “PBM E-score” value is on record?
Answer: Its value is 0.0219.

Question: ATCGGCGA was tested. Which “PBM E-score” value did it give?
Answer: The value was -0.203.

Question: ATGGCACG was tested. Which “PBM E-score” value did it give?
Answer: Its value is -0.185.

Question: CAACATGG was tested. Which “PBM E-score” value did it give?
Answer: The value was 0.0405.

Question: For ACCCTGCA, which “PBM E-score” value is on record?
Answer: Its value is 0.133.

Question: GGGACGTA was tested. Which “PBM E-score” value did it give?
Answer: The value was -0.176.

Question: How did the “PBM E-score” value turn out when AAAAGTGT was run?
Answer: Its value is -0.129.

Question: How did the “PBM E-score” value turn out when AATTACCA was run?
Answer: The value was 0.203.

Question: How did the “PBM E-score” value turn out when CTAACCTA was run?
Answer: The value was 0.0168.

Question: For GAATCGAC, which “PBM E-score” value is on record?
Answer: The value was 0.0824.

Question: How did the “PBM E-score” value turn out when GAGACTGA was run?
Answer: The value was 0.133.

Question: GCCCATAA was tested. Which “PBM E-score” value did it give?
Answer: Its value is -0.191.

Question: With CGCTTACA as the sequence, how does the “PBM E-score” value read?
Answer: The value was 0.0289.

Question: With CTGTAGCC as the sequence, how does the “PBM E-score” value read?
Answer: The value was -0.264.

Question: With GCTCACCA as the sequence, how does the “PBM E-score” value read?
Answer: Its value is -0.109.

Question: How did the “PBM E-score” value turn out when TGTAGCAA was run?
Answer: The value was 0.142.

Question: ATTATGTC was tested. Which “PBM E-score” value did it give?
Answer: The value was 0.17.

Question: How did the “PBM E-score” value turn out when AAGCTTCC was run?
Answer: Its value is -0.092.

Question: How did the “PBM E-score” value turn out when GGGCAGGA was run?
Answer: Its value is -0.198.

Question: For TAGTTTAA, which “PBM E-score” value is on record?
Answer: The value was 0.135.

Question: For AACTCATT, which “PBM E-score” value is on record?
Answer: The value was 0.0776.

Question: How did the “PBM E-score” value turn out when AGTGGCCA was run?
Answer: Its value is -0.073.

Question: How did the “PBM E-score” value turn out when CATGCATG was run?
Answer: The value was -0.0573.

Question: Which “PBM E-score” value does the source give for AGAATACC here?
Answer: The value was 0.143.

Question: With AGTACCGG as the sequence, how does the “PBM E-score” value read?
Answer: The value was -0.182.

Question: CTAAGTAG was tested. Which “PBM E-score” value did it give?
Answer: Its value is 0.168.

Question: GAGGTCGC was tested. Which “PBM E-score” value did it give?
Answer: The value was -0.307.

Question: How did the “PBM E-score” value turn out when CGAGACTC was run?
Answer: The value was -0.0955.

Question: With GACCGGGC as the sequence, how does the “PBM E-score” value read?
Answer: Its value is -0.187.

Question: With TAACCCTA as the sequence, how does the “PBM E-score” value read?
Answer: Its value is 0.132.

Question: How did the “PBM E-score” value turn out when GCGTAGCA was run?
Answer: Its value is -0.019.
